Molecules are shown by their SMILES. The whole screen tested about 310,000 compounds, of which about 14,000 (4.5%) showed an effect of 50% or more. Effects have a minus sign here. The list shows a part of the results.
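Note: peak tail current of the secondary pulse compared with the same well before compound.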

For the assay, the target named is human ether-à-go-go-related gene (hERG) potassium channel (human, UniProt Q12809). Put plainly: primary screen, population patch clamp on CHO cells stably expressing hERG.
Chain of human ether-à-go-go-related gene (hERG) potassium channel (Q12809 whole entry, looked up): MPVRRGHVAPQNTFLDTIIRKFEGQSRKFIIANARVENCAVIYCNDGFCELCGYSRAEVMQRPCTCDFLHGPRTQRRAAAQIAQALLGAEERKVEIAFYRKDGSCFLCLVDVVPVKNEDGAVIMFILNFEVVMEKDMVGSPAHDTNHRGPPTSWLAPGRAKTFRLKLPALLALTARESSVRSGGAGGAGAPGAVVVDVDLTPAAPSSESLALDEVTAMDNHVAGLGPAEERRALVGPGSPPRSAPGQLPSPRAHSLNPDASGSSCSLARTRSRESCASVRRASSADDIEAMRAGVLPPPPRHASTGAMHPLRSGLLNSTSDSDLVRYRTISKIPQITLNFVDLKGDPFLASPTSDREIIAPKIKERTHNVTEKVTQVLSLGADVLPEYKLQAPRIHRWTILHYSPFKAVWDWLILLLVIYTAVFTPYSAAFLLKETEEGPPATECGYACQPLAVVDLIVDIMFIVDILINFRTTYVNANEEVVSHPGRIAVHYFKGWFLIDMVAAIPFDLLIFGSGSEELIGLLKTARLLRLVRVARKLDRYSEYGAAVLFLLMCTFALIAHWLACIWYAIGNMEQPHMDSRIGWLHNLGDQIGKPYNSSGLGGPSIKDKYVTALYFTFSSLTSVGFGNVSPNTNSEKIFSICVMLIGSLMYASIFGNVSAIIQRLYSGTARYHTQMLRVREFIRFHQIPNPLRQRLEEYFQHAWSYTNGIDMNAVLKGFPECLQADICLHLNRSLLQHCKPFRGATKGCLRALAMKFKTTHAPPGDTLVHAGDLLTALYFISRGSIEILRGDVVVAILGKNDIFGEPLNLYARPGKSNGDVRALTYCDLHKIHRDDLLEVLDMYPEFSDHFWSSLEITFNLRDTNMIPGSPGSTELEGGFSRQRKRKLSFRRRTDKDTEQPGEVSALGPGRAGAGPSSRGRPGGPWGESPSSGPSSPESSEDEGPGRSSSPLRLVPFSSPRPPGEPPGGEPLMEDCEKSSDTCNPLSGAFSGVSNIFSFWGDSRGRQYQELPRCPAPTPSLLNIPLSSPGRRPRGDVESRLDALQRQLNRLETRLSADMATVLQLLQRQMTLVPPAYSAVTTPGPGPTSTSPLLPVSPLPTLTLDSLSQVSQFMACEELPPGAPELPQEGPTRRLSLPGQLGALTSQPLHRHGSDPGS
Consider `O=C(O)c1cccc(-c2nc3ccccc3[nH]2)c1`, for which the “hERG current change (%, negative = inhibition) at 10uM” value came out at 0.57%. Then `COc1ccc(CNC(=O)c2cccnc2Sc2ccc(Cl)cc2)cc1`, with -1.59%; and `CCOc1ccc(-c2nc(N)ncc2Oc2ccccc2Br)c(O)c1`, with 10.3%. On to `COc1ccc(OCCCSc2ncccn2)cc1`, for which the “hERG current change (%, negative = inhibition) at 10uM” value was -6.26%. The value for `CCc1ccccc1Cn1c(=O)oc2cccnc21` was 8.11%; that for `Cc1ccc2c(C)c(C(=O)NCc3ccc(S(N)(=O)=O)cc3)oc2c1` was 18.5%. Consider `Nn1c(SCc2cccc3ccccc23)nnc1-c1ccco1`, for which the “hERG current change (%, negative = inhibition) at 10uM” value was -11.4%. The value for `O=C(/C=C/c1ccco1)N1CCN(c2ccccc2)CC1` was -1.71%; that for `CC(C)C1Nc2ccc(C(=O)NC3CCCCC3)cc2NC1=O` (stereo not drawn) was 11.6%; that for `COc1cccc(NC(=O)C(Cc2ccccc2)NC(=O)C2CCC(C)CC2)c1` (stereo not drawn) was -11.8%.

For the compound `CC1CN(C(=O)c2ccc(Br)c(S(=O)(=O)N3CCOCC3)c2)CC(C)O1` (stereo not drawn), the “hERG current change (%, negative = inhibition) at 10uM” value was found to be 1.59%. The value for `COc1ccc(CN(C)C(=O)CCCNC(=O)c2ccc(Cl)cc2)cc1` was -26.6%; that for `CCCCN(N=Nc1nonc1OC)c1nonc1OC` was -3.98%. Then `S=c1[nH]nc(Cc2ccccc2)n1-c1ccccc1`, with 22.9%; and `CCOC(=O)COc1ccc(S(=O)(=O)NCCC2=CCCCC2)cc1`, with -4.87%. On to `Cc1cc(NC(=O)CC(CN(C)S(=O)(=O)c2ccccc2)c2ccccc2)no1` (stereo not drawn), for which the “hERG current change (%, negative = inhibition) at 10uM” value was -35%.

As for `CC(=O)N1CCc2cc(S(=O)(=O)CCC(=O)Nc3ccc(Cl)cc3F)ccc21`, the “hERG current change (%, negative = inhibition) at 10uM” value turned out to be 13.8%.

For `Oc1ccc(N2CCN(C(c3ccccn3)c3nnnn3C3CCCC3)CC2)cc1` (stereo not drawn), the “hERG current change (%, negative = inhibition) at 10uM” value is -19.5%. Then `COc1cc(OC)cc(C(=O)NCC(=O)Nc2ccc(OC)c(Cl)c2)c1`, with 10.7%; and `Nc1nonc1C(=O)NCCNC(=O)c1ccc(Cl)cc1`, with 4.7%; and `CCn1c(=O)c(-[n+]2ccccc2)c(O)c2ccccc21.[Cl-]`, with 16.3%. The value for `COc1cc2c(cc1OC)-c1cc(NC3CCCCC3)nc(=O)n1CC2` was -11.7%; that for `O=C(Nc1cccc(C(F)(F)F)c1)C1CCN(S(=O)(=O)c2cnc[nH]2)CC1` was 13.1%. The value for `COc1ccc(CC(=O)OCN2C(=O)c3ccccc3C2=O)cc1OC` was 19%.

With `Fc1ccc(-c2csc(-c3ccccn3)n2)cc1F`, the “hERG current change (%, negative = inhibition) at 10uM” value is on record as 52%. For `COc1ccccc1N1CCN(C(CNS(=O)(=O)c2ccccc2)c2ccccc2)CC1` (stereo not drawn), the “hERG current change (%, negative = inhibition) at 10uM” value stood at 4.32%. Regarding `CCN1CCN(C(C)C(=O)Nc2c(C)n(C)n(-c3ccccc3)c2=O)CC1.O=C(O)C(=O)O` (stereo not drawn), the “hERG current change (%, negative = inhibition) at 10uM” value is on record as 18.6%. Then `CC(=O)c1cccc(NC(=O)/C(=C\c2cccnc2)NC(=O)c2ccccc2)c1`, with 7.67%. The value for `C/C=C/CC#N` was 2.03%; that for `CCCCn1c(SCC(=O)c2ccc(OC)c(OC)c2)nc2cc(S(N)(=O)=O)ccc21` was 8.42%; that for `Cc1ccc(CNc2ccc3c(c2)OCO3)c(C)c1` was -15.1%. Consider `O=C(Nc1cccc(F)c1)Nc1ccccn1`, for which the “hERG current change (%, negative = inhibition) at 10uM” value came to 18.5%. Then `Cn1nnnc1Sc1ncnc2scc(-c3cccc(F)c3)c12`, with 4.33%; and `CCCCNc1cc(C)nc(N2CCOCC2)n1`, with -44.4%. The value for `CCOc1ccc(-c2ncncc2-c2ccccc2OC)c(O)c1` was 3.17%; that for `CC(C)CN1CCN=C1Nc1ccccc1` was 7.21%; that for `COc1ccc2[nH]cc(C(O)CN3CCN(c4ccccc4F)CC3)c2c1` (stereo not drawn) was -22%. In the case of `Cc1ccc2c(c1)C1(C(=O)N2C)N2CC3(C)CN1CC(C)(C2)C3=O` (stereo not drawn), the “hERG current change (%, negative = inhibition) at 10uM” value was determined as 19%. The value for `Cl.Fc1ccc(C2=CSC3=NCCN23)cc1` was 15.4%; that for `CCN(CC(=O)Nc1cc(Cl)ccc1C)C(=O)c1nc2nc(C)cc(C)n2n1` was 2.44%; that for `COc1ccc(-c2ocnc2C(=O)Nc2ccccc2N2CCCCC2)cc1` was -7.96%. Then `CCn1c(C)nc2cc(C(=O)NNC(=S)NC(=O)c3ccccc3)ccc21`, with 28.2%; and `COc1cc(C2NC(=O)NC(C)=C2C(=O)OC2CCCCC2)cc(Br)c1O` (stereo not drawn), with -4.68%; and `CC(C)N1CC(O)=C(c2ccccc2)C1=N`, with -0.355%. Then `CC(=O)O[C@@H]1/C=C/[C@](C)(O)C[C@@H](C)C/C=C/[C@H]2[C@H](O)[C@@](C)(O)[C@@H](C)[C@H]3[C@H](Cc4ccccc4)NC(=O)[C@@]312`, with 20%; and `Cc1ccc(/C=C/C(=O)NCCc2ccccc2)o1`, with 16.2%; and `COc1ccc(C2/C(=C(/O)c3ccc(C)cc3)C(=O)C(=O)N2c2ccccn2)cc1OC` (stereo not drawn), with 10.5%.

Regarding `O=C1c2ccccc2C(=O)N1Cc1nc2ccccc2c(=O)n1CCCN1CCOCC1`, the “hERG current change (%, negative = inhibition) at 10uM” value was -10.7%.

Consider `Cc1csc(SC(C)C(=O)NCC2CCCCC2)n1` (stereo not drawn), for which the “hERG current change (%, negative = inhibition) at 10uM” value was 0.139%. Then `COc1cc2c(cc1OC)-c1cc(N3CCCc4ccccc43)nc(=O)n1CC2`, with -7.57%; and `COC(=O)c1cc(COC(=O)c2nc3nccc(C)n3n2)oc1C`, with 15.7%; and `Cn1c(=O)c2c(ncn2CC(=O)OCC(=O)Nc2ccc(F)cc2F)n(C)c1=O`, with -18.4%. Then `COc1ccc(C(=O)NCc2ccc(C)cc2)cc1S(=O)(=O)N1CCCC1`, with -9.74%. Then `CCCNS(=O)(=O)c1ccc(CCC(=O)Nc2ccc3c(c2)OCO3)cc1`, with 3.36%.

As to `CCn1cc(C(=O)NC(=S)Nc2cccc(O)c2)cn1`, the “hERG current change (%, negative = inhibition) at 10uM” value is on record as 1.2%.

In the case of `COCCNC(=O)C(c1ccc(OC)cc1)N(Cc1ccco1)C(=O)CCC(=O)Nc1ccccn1` (stereo not drawn), the “hERG current change (%, negative = inhibition) at 10uM” value is 4.13%.

Consider `Cc1cccc(OCCn2ccnc2)c1`, for which the “hERG current change (%, negative = inhibition) at 10uM” value was 12.7%.

Take `C=CC#CC1(O)CC(C)N(C)CC1C` (stereo not drawn): the “hERG current change (%, negative = inhibition) at 10uM” value was -0.439%. Turning to `O=C(CCCOc1ccccc1)NCCc1nc2ccccc2[nH]1`, the “hERG current change (%, negative = inhibition) at 10uM” value is reported as -5.39%. The value for `O=C(OCc1ccc(COC(=O)c2ccccn2)cc1)c1ccccn1` was 25.6%; that for `Cc1ccc(NS(=O)(=O)c2ccc(Cl)c(C(=O)Nc3cccc(C(=O)O)c3)c2)cc1` was 8.84%; that for `CCCC(=O)N1CCN(c2ccc(NC(=O)C(C)(C)C)cc2Cl)CC1` was -0.981%. Then `O=C(/C(=C/c1ccccc1)n1cncn1)c1ccc(Cl)cc1Cl`, with -6.84%; and `CN(Cc1ccco1)C(=O)Cn1nc(-c2ccc(Cl)cc2)ccc1=O`, with -46.6%. Then `O=C(OCc1cc(=O)n2c(n1)sc1ccccc12)c1ccc2c(=O)n3c(nc2c1)CCC3`, with 6.09%; and `Cc1cccc(NC(=O)CSc2cc(C(=O)c3nccn3C)c3ccccc3n2)c1`, with 16.9%; and `CC(C)(C)NCC(O)COc1ccccc1C(=O)CCc1ccccc1.Cl` (stereo not drawn), with -69.9%. Consider `CCCN(c1ccccc1F)S(=O)(=O)c1c[nH]c(C(=O)OC)c1`, for which the “hERG current change (%, negative = inhibition) at 10uM” value was -12.9%. The value for `CC(C)C(C(=O)O)N1CCS(=O)(=O)CC1` (stereo not drawn) was -8.12%.

As to `CC1SCC(=O)N(CC(=O)NCCc2ccccc2)C1=O` (stereo not drawn), the “hERG current change (%, negative = inhibition) at 10uM” value was -9.09%. For the compound `CC(c1ccon1)N(C)Cc1cn(Cc2ccccc2)nc1-c1ccc2c(c1)OCO2` (stereo not drawn), the “hERG current change (%, negative = inhibition) at 10uM” value was -9.87%. The value for `O=C(CSc1ccccn1)N/N=C/C=C/c1ccccc1` was -27.7%; that for `O=C(COC(=O)C1COc2ccccc2O1)NC(=O)NC1CCCCC1` (stereo not drawn) was -2.63%.

`Cc1c(NC(=O)COC(=O)C2=COCCO2)cccc1[N+](=O)[O-]`: the “hERG current change (%, negative = inhibition) at 10uM” value was 23.1%. Regarding `O=C(CN1C(=O)S/C(=C\c2ccccc2F)C1=O)Nc1ccccc1O`, the “hERG current change (%, negative = inhibition) at 10uM” value was determined as 23.3%. Then `COc1ccccc1N1CCN(C(=O)c2cccc(N3C(=O)C4C5C=CC(C5)C4C3=O)c2)CC1` (stereo not drawn), with 5.22%; and `O=C(CSc1nc2ccccc2c(=O)n1-c1ccc(F)cc1)NCc1ccco1`, with -1.02%; and `CC(=O)Nc1ccc(N(C(=O)CNC(=O)c2cccs2)C(C(=O)NC(C)(C)C)c2ccccc2)cc1` (stereo not drawn), with -12.1%. Consider `CCc1c(C)nc2ncnn2c1NCCc1ccc(OC)cc1`, for which the “hERG current change (%, negative = inhibition) at 10uM” value is given as -12.7%. Then `Cc1ccc(-n2nnc(-c3cc4ccccc4n3C)n2)cc1`, with 10.5%; and `CCOc1ccc(S(=O)(=O)N2CCCCC2)cc1NC(=O)CN1C(=O)NC(C)(C2CC2)C1=O` (stereo not drawn), with -21.5%; and `Cc1ccc(C)c(NC(=O)CCC(=O)NNC(=O)COc2cc(C)ccc2C)c1`, with 28.8%. The value for `COc1ccccc1NC(=O)CSC1=NC(=O)C(NC(C)=O)C(=O)N1` (stereo not drawn) was 0.223%; that for `COc1ccc(NC(=O)C2CCN(S(C)(=O)=O)CC2)cc1Cl` was -4.68%.

Regarding `CC(=O)N/C(=C/c1ccccc1)C(=O)NCCO`, the “hERG current change (%, negative = inhibition) at 10uM” value was determined as 0.551%. In the case of `O=c1oc(-c2cccs2)nc2sc3c(c12)CCCCC3`, the “hERG current change (%, negative = inhibition) at 10uM” value is recorded as -42.4%. The value for `CCc1cccc(CC)c1NC(=O)c1cccc(NC(=O)c2ccccc2)c1` was -17.1%. Consider `COC(CNC(=O)c1ccc(N2CCC3(CC2)OCCO3)c([N+](=O)[O-])c1)OC`, for which the “hERG current change (%, negative = inhibition) at 10uM” value is recorded as 2.51%. The value for `Cc1ccc(NC(=S)NCC2CCCO2)cc1C` (stereo not drawn) was -1.97%. Take `O=C(CC1c2ccccc2Oc2ccccc21)Nc1ccccc1F`: the “hERG current change (%, negative = inhibition) at 10uM” value is listed as 16.2%.
